From patent US4585859A, “Analogues of morpholinyl daunorubicin and morpholinyl doxorubicin” (priority 1984, dated 1986)

Test system: L1210 leukemia
Conditions: ip L1210

Q: Which “Mouse Antitumor Efficacy at Optimum Dose, % T/C” value (d 1, ip) does the source give for `COc1cccc2c1C(=O)c1c(O)c3c(c(O)c1C2=O)C[C@@](O)(C(=O)CO)C[C@@H]3O[C@H]1C[C@H](N2CCOCC2)[C@H](O)[C@H](C)O1` [NSC 354646, 3'-deamino-3'-(4"-morpholinyl)doxorubicin] here?
A: 152%

Q: And the “Optimum Dose” value (d 1, ip)?
A: 0.05 mg/kg

Q: And the “Mouse Antitumor Efficacy at Optimum Dose, % T/C” value (qd 1-9, ip)?
A: > 141%

Q: What about the “Optimum Dose” value (qd 1-9, ip) of the same compound?
A: 0.025 mg/kg

Like-named read-outs stand apart in the source and are kept apart here.
